# Data from the supplement of paper PMC8728848.
# Some of the results follow.
# B1: Epa1-NP-mutant-Y228A (Candida glabrata), Q6VBJ0 (protein)
# chain: MILNPALFLNKCVCIYTTLILLLLTNGGYATSSNDISLASKDPTTFPLGCSPDITTPKKGLSMELYSYDFRKKGSYPCWDAAYLDPNYPRTGYKSHRLLAKVDGVTGNINFYYHATKGCTPQLGHLPASYNYPKPLTMTNFTMLLYGYFRPKVTGFHTFTISADDLLFVNFGAGNAFDCCRRDSSADHFGNYQAYAIWGSKTAKDELTVHLDAGVYYPIRLFYNNREADGALSFTFKTESNENTVSDFSEYFFSLDDTEEGCPGLISYDSSCASVKTSKIIGIDYHTETPNENLVPITKTIYHLGIPCTGTTTTPLCGSGFYDPLANKCVTINTSSTSSVTKTTSHTTSKEVSFHSSISSQKTLIPKSIPSPYGPIKSQSIPTEMETSSEISSSEYAFSDVISTPSHSPYTKKHSSLNSSSYTSTVIHSLTSYSISQGIFSTSLSEQNITSKSSTDKFSTATSMSNNITQSSIIISQFSTNNENYTTTSMHTSSDKISTETLNNSISTTTSILFSNSSTILKNNTTIISSDKDTHYHPVNPTIVCSTNKTEIICASITQPSISNSNNHWSSSVLKFNSTTVRSTLPSSAGSNETSINVPFSSSTESNTSTSSTSTSNSKMVRSTLPSSAGSNETSISVPFSSSTESNTSTSSTSTSNSKMVRSTLPSSAGSNETSINVPFSSSTESNTSTSSTSTSNSKTVRSTPFSSAGIIMTSLSQRNNKSASSYASSNSKCYNTADSCRKVHSTPSYLLTSSYTSEGVDYDCSLVSTKLKINDTNCVNNKHTTKSCLKTSVTTTIPTLEIKTARKSSSNTIGLHSYPTSSPNKSISSAPIIGYISSFKTIKTASPSYQTSDLTTITTITSLNNPGSTAVENTHESNDKSRKTSSNDISSKHSVIKETKDAVESSNKSHQTNTLKCSSIIIASSSHNSYESLGGTTLTLTLSKVYSPQNNDTLPFLEISEVNPSRTVLPESSKMMQYLTSTEERNKTARNTIATNIVSISTFHFEGEGNAIRMGYTQLLLMLIGIIVMNIGT
# Legend:
# Assay in all cases: glycan array binding signal (z-score within array); higher = stronger binding
# Details in all cases: glycan notation: IUPAC condensed, linker removed; mutation: Y228A
# [1] = target: Gal(b1-3)GlcNAc(b1-2)Man(a1-3)[Gal(b1-3)GlcNAc(b1-2)Man(a1-6)]Man(b1-4)GlcNAc(b1-4)GlcNAc
# Method in brief: (§1)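 The binding signal is a Z-score computed within each array and averaged over linkers. Arrays of the same protein sequence at different concentrations or buffers were also averaged together. Data originate from 3228 arrays in the Consortium for Functional Glycomics database, kept only where the protein sequence was available.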
# [2] = target: Gal(b1-3)GlcNAc(b1-2)Man(a1-3)[Gal(b1-3)GlcNAc(b1-2)Man(a1-6)]Man(b1-4)GlcNAc(b1-4)[Fuc(a1-6)]GlcNAc
# Method in brief: as §1
# [3] = target: Gal(b1-3)GlcNAc(b1-2)Man(a1-3)[GlcNAc(b1-4)][Gal(b1-3)GlcNAc(b1-2)Man(a1-6)]Man(b1-4)GlcNAc(b1-4)GlcNAc
# Method in brief: as §1
# [4] = target: Gal(b1-3)GlcNAc(b1-2)[Gal(b1-3)GlcNAc(b1-6)]Man(a1-6)[Gal(b1-3)GlcNAc(b1-2)Man(a1-3)]Man(b1-4)GlcNAc(b1-4)GlcNAc
# Method in brief: as §1
# [5] = target: Gal(b1-3)GlcNAc(b1-3)Gal(b1-3)GlcNAc
# Method in brief: as §1
# [6] = target: Gal(b1-3)GlcNAc(b1-3)Gal(b1-4)Glc
# Method in brief: as §1
# [7] = target: Gal(b1-3)GlcNAc(b1-3)Gal(b1-4)GlcNAc
# Method in brief: as §1
# [8] = target: Gal(b1-3)GlcNAc(b1-3)Gal(b1-4)GlcNAc(b1-2)Man(a1-3)[Gal(b1-3)GlcNAc(b1-3)Gal(b1-4)GlcNAc(b1-2)Man(a1-6)]Man(b1-4)GlcNAc(b1-4)GlcNAc
# Method in brief: as §1
# [9] = target: Gal(b1-3)GlcNAc(b1-3)Gal(b1-4)GlcNAc(b1-2)[Gal(b1-3)GlcNAc(b1-3)Gal(b1-4)GlcNAc(b1-6)]Man(a1-6)[Gal(b1-3)GlcNAc(b1-3)Gal(b1-4)GlcNAc(b1-2)Man(a1-3)]Man(b1-4)GlcNAc(b1-4)[Fuc(a1-6)]GlcNAc
# Method in brief: as §1
# [10] = target: Gal(b1-3)GlcNAc(b1-3)Gal(b1-4)GlcNAc(b1-3)Gal(b1-4)GlcNAc(b1-2)[Gal(b1-3)GlcNAc(b1-3)Gal(b1-4)GlcNAc(b1-3)Gal(b1-4)GlcNAc(b1-6)]Man(a1-6)[Gal(b1-3)GlcNAc(b1-3)Gal(b1-4)GlcNAc(b1-3)Gal(b1-4)GlcNAc(b1-2)Man(a1-3)]Man(b1-4)GlcNAc(b1-4)[Fuc(a1-6)]GlcNAc
# Method in brief: as §1
# [11] = target: Gal(b1-3)GlcNAc(b1-3)Gal(b1-4)GlcNAc(b1-6)[Gal(b1-3)GlcNAc(b1-3)]Gal(b1-4)Glc
# Method in brief: as §1
# [12] = target: Gal(b1-3)GlcNAc(b1-3)Gal(b1-4)[Fuc(a1-3)]GlcNAc
# Method in brief: as §1
# [13] = target: Gal(b1-3)GlcNAc(b1-3)Gal(b1-4)[Fuc(a1-3)]GlcNAc(b1-6)[Gal(b1-3)GlcNAc(b1-3)]Gal(b1-4)Glc
# Method in brief: as §1
# [14] = target: Gal(b1-3)GlcNAc(b1-3)GalNAc
# Method in brief: as §1
# [15] = target: Gal(b1-3)GlcNAc(b1-6)Gal(b1-4)GlcNAc
# Method in brief: as §1
# [16] = target: Gal(b1-3)GlcNAc(b1-6)GalNAc
# Method in brief: as §1
# [17] = target: Gal(b1-3)GlcNAc(b1-6)[Gal(b1-3)]GalNAc
# Method in brief: as §1
# [18] = target: Gal(b1-3)GlcNAc6S
# Method in brief: as §1
# [19] = target: Gal(b1-3)[Fuc(a1-4)]GlcNAc
# Method in brief: as §1
# [20] = target: Gal(b1-3)[Fuc(a1-4)]GlcNAc(b1-2)Man
# Method in brief: as §1
# [21] = target: Gal(b1-3)[Fuc(a1-4)]GlcNAc(b1-2)Man(a1-3)[Gal(b1-3)[Fuc(a1-4)]GlcNAc(b1-2)Man(a1-6)]Man(b1-4)GlcNAc(b1-4)[Fuc(a1-6)]GlcNAc
# Method in brief: as §1
# [22] = target: Gal(b1-3)[Fuc(a1-4)]GlcNAc(b1-3)Gal(b1-3)[Fuc(a1-4)]GlcNAc
# Method in brief: as §1
# [23] = target: Gal(b1-3)[Fuc(a1-4)]GlcNAc(b1-3)Gal(b1-4)[Fuc(a1-3)]GlcNAc
# Method in brief: as §1
# [24] = target: Gal(b1-3)[Fuc(a1-4)]GlcNAc(b1-6)GalNAc
# Method in brief: as §1
# [25] = target: Gal(b1-3)[GlcNAc(b1-6)]GalNAc
# Method in brief: as §1
# [26] = target: Gal(b1-3)[Neu5Ac(a2-6)]GalNAc
# Method in brief: as §1
# [27] = target: Gal(b1-3)[Neu5Ac(a2-6)]GlcNAc(b1-4)Gal(b1-4)Glc
# Method in brief: as §1
# [28] = target: Gal(b1-3)[Neu5Ac(b2-6)]GalNAc
# Method in brief: as §1
# [29] = target: Gal(b1-4)Gal
# Method in brief: as §1
# [30] = target: Gal(b1-4)GalNAc(a1-3)[Fuc(a1-2)]Gal(b1-4)GlcNAc
# Method in brief: as §1
binder,measurement,setting,value
B1,glycan array binding signal (z-score),[1],2.18
same,glycan array binding signal (z-score),[2],2.29
same,glycan array binding signal (z-score),[3],2.24
same,glycan array binding signal (z-score),[4],1.57
same,glycan array binding signal (z-score),[5],0.756
same,glycan array binding signal (z-score),[6],0.604
same,glycan array binding signal (z-score),[7],0.837
same,glycan array binding signal (z-score),[8],0.855
same,glycan array binding signal (z-score),[9],0.799
same,glycan array binding signal (z-score),[10],1.24
same,glycan array binding signal (z-score),[11],2.26
same,glycan array binding signal (z-score),[12],-0.046
same,glycan array binding signal (z-score),[13],-0.03
same,glycan array binding signal (z-score),[14],-0.135
same,glycan array binding signal (z-score),[15],2.32
same,glycan array binding signal (z-score),[16],-0.142
same,glycan array binding signal (z-score),[17],0.385
same,glycan array binding signal (z-score),[18],7.1
same,glycan array binding signal (z-score),[19],-0.191
same,glycan array binding signal (z-score),[20],-0.072
same,glycan array binding signal (z-score),[21],-0.006
same,glycan array binding signal (z-score),[22],-0.23
same,glycan array binding signal (z-score),[23],-0.097
same,glycan array binding signal (z-score),[24],-0.184
same,glycan array binding signal (z-score),[25],-0.188
same,glycan array binding signal (z-score),[26],0.209
same,glycan array binding signal (z-score),[27],-0.161
same,glycan array binding signal (z-score),[28],-0.117
same,glycan array binding signal (z-score),[29],-0.071
same,glycan array binding signal (z-score),[30],-0.277
